{
  "source": "PubChem BioAssay AID485281",
  "about": "(National Center for Advancing Translational Sciences (NCATS), 2010)",
  "note": "About 260 (0.074%) of roughly 350,000 compounds were called active. This list was built around the results that the source calls inconclusive (neither active nor inactive); the mix of calls is not that of the screen. Calls come from the whole dose curve; as a rule, active = well fitted inhibition curve with a large enough effect; inconclusive = small, poorly fitted or top-dose-only effect; inactive = no such curve, though single readings can be large or run the other way. A potency beside an inconclusive call is a rough fit, not a confirmed value. Potency is the fitted concentration of half-maximal effect; tags give direction and shape of the fitted curve.",
  "data": [
    {"target": "Ferritin light chain (Equus caballus) (UniProt P02791)", "sequence (P02791 whole entry, looked up)": "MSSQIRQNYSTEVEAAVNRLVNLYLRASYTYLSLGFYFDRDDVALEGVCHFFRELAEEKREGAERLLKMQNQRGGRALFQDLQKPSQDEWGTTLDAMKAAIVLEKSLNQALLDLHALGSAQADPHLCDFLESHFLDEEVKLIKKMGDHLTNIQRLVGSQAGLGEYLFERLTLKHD", "experiment": "qHTS Assay for Identification of Novel General Anesthetics; note: nearly all actives have a fitted effect of over 20% in size", "conditions": "apoferritin/1-aminoanthracene competitive binding, fluorescence; series mostly up to 77.5 µM", "method_in_brief": "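Horse-spleen apoferritin (10 uM) in 50% saturated 1-aminoanthracene in PBS was incubated 10 min at room temperature with compound. Fluorescence (ex 380, em 535 nm) was normalized to free and bound 1-AMA, with concentration-response fitted by a four-parameter Hill equation.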", "values": [
      {"smiles": "Cc1ccccc1OCCNc1cc(N2CCCCC2)ccc1[N+](=O)[O-]", "Potency": "inconclusive: 35.5 µM [inhibitor, partial curve]"},
      {"smiles": "CC1CCCC(NC(=O)COC(=O)/C=C/c2ccc3c(c2)OCO3)C1C", "note": "(centres undefined)", "Potency": "inconclusive: 12.6 µM [inhibitor, partial curve]"},
      {"smiles": "c1ccc(-c2csc(NC3CCCCC3)n2)cc1", "Potency": "inconclusive: 35.5 µM [inhibitor, partial curve]"},
      {"smiles": "CCOC(=O)Cc1csc(NC(=S)NC(=O)c2cc(OC)cc(OC)c2)n1", "Potency": "inconclusive: 28.2 µM [inhibitor, partial curve]"},
      {"smiles": "Cn1c(CCN2CCCCC2)nc2cc(NS(=O)(=O)c3ccc(Cl)cc3)ccc21", "Potency": "inconclusive: 28.2 µM [inhibitor, partial curve]"},
      {"smiles": "O=C(Cc1ccc(-c2ccccc2)cc1)NCCN1CCOCC1", "Potency": "inconclusive: 28.2 µM [inhibitor, partial curve]"},
      {"smiles": "CCCCc1ccc(NC(=O)COc2cccc3c(=O)n(C)ccc23)cc1", "Potency": "inconclusive: 28.2 µM [inhibitor, partial curve, poor fit]"},
      {"smiles": "COc1cccc(NC(=O)CCC(=O)N2CC(C)Oc3ccc(C)cc32)c1", "note": "(centres undefined)", "Potency": "inconclusive: 25.1 µM [inhibitor, partial curve]"},
      {"smiles": "O=c1c2ccccc2ncn1Cc1cccc2ccccc12", "Potency": "inconclusive: 20 µM [inhibitor, partial curve]"},
      {"smiles": "O=C(COc1ccccc1F)N/N=C1\\CCCc2ccccc21", "Potency": "inconclusive: 31.6 µM [inhibitor, single point]"},
      {"smiles": "Cc1ccc(NC(=O)C2CCCN(c3nnc(-n4c(C)ccc4C)s3)C2)cc1Cl", "note": "(centres undefined)", "Potency": "inconclusive: 14.1 µM [inhibitor, partial curve]"},
      {"smiles": "NC(=O)c1c(NC(=O)CSc2nnc(Cc3ccccc3)n2Cc2ccco2)sc2c1CCC2", "Potency": "inconclusive: 15.8 µM [inhibitor, partial curve]"},
      {"smiles": "Cc1cnc(NCCc2ccccc2)s1", "Potency": "inconclusive: 3.55 µM [inhibitor, partial curve]"},
      {"smiles": "CCCc1cc(=O)n2[nH]c(-c3ccc(C)cc3)nc2n1", "Potency": "inactive"},
      {"smiles": "Clc1ccc(CNc2ccccn2)cc1", "Potency": "inconclusive: 15.8 µM [inhibitor, partial curve]"},
      {"smiles": "N=c1c2c(-c3ccccc3)c(-c3ccccc3)n(Cc3ccco3)c2ncn1Cc1ccco1", "Potency": "inconclusive: 4.47 µM [inhibitor, partial curve]"},
      {"smiles": "c1ccc(OCc2nnc3sc(C4COc5ccccc5O4)nn23)cc1", "note": "(centres undefined)", "Potency": "inconclusive: 15.8 µM [inhibitor, partial curve]"},
      {"smiles": "O=c1c(O)c(-c2ccccc2)oc2cccc(O)c12", "Potency": "inconclusive: 14.1 µM [inhibitor, partial curve]"},
      {"smiles": "CC(=O)c1ccc(OCCCC(=O)NC2CCC(C)CC2)cc1", "note": "(centres undefined)", "Potency": "inconclusive: 15.8 µM [inhibitor, partial curve]"},
      {"smiles": "COc1ccc2oc(-c3ccccc3)c(C(N)=O)c2c1", "Potency": "inactive"},
      {"smiles": "Cc1cc(/C=C\\c2ccc3cc(N(C)C)ccc3[n+]2C)c(C)n1-c1ccccc1", "Potency": "inactive"},
      {"smiles": "COc1ccccc1OCC(O)Cn1nc(C)cc1C", "note": "(centres undefined)", "Potency": "inconclusive: 8.91 µM [inhibitor, full curve, poor fit]"},
      {"smiles": "CCN1CCN(CCC(=O)Nc2cc(OC)cc(OC)c2)CC1", "Potency": "inactive"},
      {"smiles": "COc1cc(OC)cc(C(=O)N[C@H](C(=O)Nc2ccccc2N2CCOCC2)C(C)C)c1", "Potency": "inconclusive: 50.1 µM [inhibitor, single point]"},
      {"smiles": "CCCCC1(C)OC(=O)C(=Cc2ccc(N(CC)CC)cc2)C(=O)O1", "note": "(centres undefined)", "Potency": "inconclusive: 35.5 µM [inhibitor, partial curve]"},
      {"smiles": "O=C1NC(=O)/C(=C\\c2cn(Cc3ccccc3F)c3ccccc23)N1", "Potency": "inconclusive: 35.5 µM [inhibitor, single point]"},
      {"smiles": "COc1ccc(NC(=O)CCn2nnc(-c3ccc(C)cc3)n2)cc1OC", "Potency": "inactive"},
      {"smiles": "O=C(NCc1nc(-c2ccc(C(F)(F)F)cc2)no1)Nc1cc(Cl)cc(Cl)c1", "Potency": "inconclusive: 39.8 µM [inhibitor, partial curve]"},
      {"smiles": "Cn1c2ccccc2c2cc(/C=N/NC(=O)c3cc(O)ccc3O)ccc21", "Potency": "inactive"},
      {"smiles": "CCOC(=O)C(C(=O)OCC)N(C#N)c1nc(OC)nc(N(C)C)n1", "Potency": "inactive"},
      {"smiles": "CS(=O)(=O)N(CC(=O)Nc1cc(Cl)ccc1Cl)c1ccccc1", "Potency": "inconclusive: 35.5 µM [inhibitor, partial curve]"},
      {"smiles": "Cc1ccc(C(=O)COC(=O)CN2C(=O)C3C4C=CC(C4)C3C2=O)cc1[N+](=O)[O-]", "note": "(centres undefined)", "Potency": "inconclusive: 20 µM [inhibitor, single point]"},
      {"smiles": "COc1cc(CNc2ccc(C)c(C)c2)cc(OC)c1OC", "Potency": "inconclusive: 31.6 µM [inhibitor, single point]"},
      {"smiles": "CCc1ccc(NC(=O)/C(C#N)=C/c2cn(CC(=O)O)c3ccccc23)cc1", "Potency": "inconclusive: 14.1 µM [inhibitor, partial curve]"},
      {"smiles": "Cc1ccc(Cc2c[nH]c(=S)s2)cc1", "Potency": "inconclusive: 15.8 µM [inhibitor, partial curve]"},
      {"smiles": "COc1ccc(CCNC(=O)c2ccc(Cl)cc2Cl)cc1", "Potency": "inactive"},
      {"smiles": "O=C(CCl)N=c1sccn1Cc1cccc2ccccc12", "Potency": "inconclusive: 39.8 µM [inhibitor, partial curve]"},
      {"smiles": "Cc1ccc(C2CC(c3cccs3)=NN2C(=O)c2ccco2)o1", "note": "(centres undefined)", "Potency": "inconclusive: 28.2 µM [inhibitor, partial curve]"},
      {"smiles": "CCN(CC)c1ccc(C=C2C(=O)OC3(CCCCC3)OC2=O)cc1", "Potency": "inconclusive: 39.8 µM [inhibitor, partial curve]"},
      {"smiles": "Cc1ccc(CNC(=O)CN2C(=O)COc3ccc(S(=O)(=O)N4CCC(C)CC4)cc32)cc1", "Potency": "inactive"},
      {"smiles": "CC(C)CC1(C)N=C(c2ccccc2)C(=S)N1", "note": "(centres undefined)", "Potency": "inconclusive: 28.2 µM [inhibitor, partial curve]"},
      {"smiles": "O=C(CNC(=O)OCc1ccccc1)NC1CCCCCC1", "Potency": "inconclusive: 25.1 µM [inhibitor, partial curve]"},
      {"smiles": "COc1ccc(C(=O)c2ccc(N3CCN(C(=O)c4ccc(F)cc4)CC3)c(F)c2)cc1Br", "Potency": "inactive"},
      {"smiles": "Cc1ccc(NC(=O)N2CCc3ccccc32)cc1C", "Potency": "inconclusive: 25.1 µM [inhibitor, partial curve]"}
    ]}
  ]
}
